Experimental data: PubChem BioAssay AID686979 (National Center for Advancing Translational Sciences (NCATS), 2013)
Screen size: about 420,000 compounds; about 50,000 (12%) were called active. Inconclusive means that the source gave no clear call. Such entries were picked first, then a sample of the others. The call rests on the fitted dose curve; in most records, active means well fitted inhibition curve with a large enough effect; inconclusive means small, poorly fitted or top-dose-only effect; inactive means flat fitted curve, though single readings scatter. No potency is given beside an inconclusive call; the fits are too rough.

Test: qHTS for Inhibitors of human tyrosyl-DNA phosphodiesterase 1 (TDP1): qHTS in cells in presence of CPT; further: nearly all actives have a fitted effect of over 55% in size
Settings: chicken DT40 Tdp1-/-;hTDP1 cells + 20 nM CPT, ATP luminescence, 48 h; series mostly up to 46.2 µM
Method in brief: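 Chicken DT40 Tdp1-/- cells complemented with human TDP1, 400 cells/well, exposed to compounds plus 20 nM camptothecin for at least 48 h at 37 C; viability read as ATP content by CellTiter-Glo luminescence.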
Potency means the concentration at half of the fitted maximal effect; tags describe the fitted curve by direction and shape.

| SMILES | Potency |
| --- | --- |
| COc1ccc(C(=O)NCC(c2ccco2)N2CCOCC2)cc1 (centres undefined) | inactive |
| Cc1cc(C(=O)NC2CC(C)(C)Cc3c2cnn3-c2cccc(F)c2)nn1C (centres undefined) | inconclusive [inhibitor, partial curve] |
| CCN(Cc1ccccc1)S(=O)(=O)c1ccc(C(=O)N(CCCN(C)C)c2nc3cc(OC)ccc3s2)cc1 | inconclusive [inhibitor, single point] |
| CC(=O)c1ccc(OCC(=O)Nc2nnc(C3CC3)s2)cc1 | inactive |
| Cc1nn(CC(=O)Nc2ccc(Cl)cc2)c(=O)c2cc(-c3ccccc3)nn12 | inconclusive [inhibitor, single point] |
| Cc1sc(N)nc1-c1c(C)n(C)c2ccccc12 | inconclusive [inhibitor, single point] |
| COc1ccc(C#Cc2cccc(-c3nc(C(=O)N4CCN(C)CC4)cc4c3[C@H](CCO)N(S(=O)C(C)(C)C)C4)c2)cc1OC (some centres undefined) | inactive |
| CCc1sc(C(=O)Nc2cccc(C(C)=O)c2)cc1C | inconclusive [inhibitor, single point] |
| CCCNC(=O)N(C)C[C@H]1Oc2ncc(C#CCc3ccccc3)cc2C(=O)N([C@H](C)CO)C[C@H]1C | active: 29.1 µM |
| CCCOC(=O)C[N+](C)(C)CCOC1CC2CCC1(C)C2(C)C (centres undefined) | active: 8.2 µM |
| Cc1cc(NC(=O)CSc2nccn2-c2cccc(F)c2)no1 | inconclusive [inhibitor, single point] |
| O=C(CCCc1nc(-c2ccccc2)no1)Nc1cc(C(F)(F)F)cc(C(F)(F)F)c1 | inconclusive [inhibitor, single point] |
| O=C(NCCCN1CCCCC1)c1ccc2c(=O)n(CCc3ccccc3)c(=O)[nH]c2c1 | inconclusive [inhibitor, single point] |
| NCCS(=O)(=O)NC1CCCCC1 | inconclusive [inhibitor, single point] |
| O=C(CSC(=S)N1CCCC1)N1CCN(S(=O)(=O)c2cccc([N+](=O)[O-])c2)CC1 | inactive |
| Cc1ccc(-c2nc3c(Cl)cc(C(F)(F)F)cn3c2Cc2cccc(F)c2)cc1 | inconclusive [inhibitor, single point] |
| CCCC(=O)Nc1ccc2c(c1)c1ccccc1n2CC | inconclusive [inhibitor, single point] |
| Cc1ccc(-c2cc(-c3ccccc3Cl)[nH]n2)c(O)c1 | inconclusive [inhibitor, single point] |
| O=C(O)CCN(CC(=O)c1ccc(Cl)cc1)S(=O)(=O)c1ccc([N+](=O)[O-])cc1 | inactive |
| CC(=O)c1coc2c1cc(O)c1ccccc12 | inactive |
| COc1ccc(C(=O)NCCNC(=O)c2cc(OCC(F)(F)F)ccc2OCC(F)(F)F)cc1 | inconclusive [inhibitor, full curve, poor fit] |
| Cc1noc(Cn2c(=O)c3ccccc3n(CC(=O)Nc3ccc(F)cc3F)c2=O)n1 | inconclusive [inhibitor, single point] |
| CCN(CC)S(=O)(=O)c1cccc(NC(=S)NC(=O)/C=C/c2ccc(S(=O)(=O)N3CCOCC3)cc2)c1 | inactive |

| SMILES | Potency |
| --- | --- |
| O=C(NNC(=O)c1cc([N+](=O)[O-])ccc1Cl)c1cccnc1 | inactive |
| Cc1ccc(OCC(=O)NNC(=S)NC(=O)C2CCCCC2)c(C)c1 | inconclusive [inhibitor, single point] |
| Cc1nn(-c2ccccc2)c2c1C(c1ccc(Cl)cc1)N(c1ccccc1)C(=O)N2 (centres undefined) | inconclusive [inhibitor, single point] |
| CCOC(=O)Cc1nnn(CC(=O)OCC)n1 | inactive |
| Cc1cccc(C)c1-n1nnnc1C(c1ccnc2ccccc12)N1CCOCC1 (centres undefined) | inactive |
| Cc1sc(-n2cccc2)c(C(C)NC(=O)Nc2ccccc2Cl)c1C (centres undefined) | inconclusive [inhibitor, single point] |
| COc1ccc(C(=O)N2CCc3ccccc32)cc1 | inactive |
| CN(CCc1ccccc1)C(=O)c1cccc(NC(=O)Cc2cccc(NC(=O)C3CCCN(C(=O)C4CCCCC4)C3)c2)c1 (centres undefined) | inconclusive [inhibitor, single point] |
| CCc1nnc(NC(=O)CSc2n[nH]c(-c3ccccc3O)n2)s1 | inactive |
| O=c1cc(CSc2nnc(Nc3ccccc3)s2)nc2sccn12 | inconclusive [inhibitor, single point] |
| CCc1nc2ccc(C(=O)NCc3ccc4c(c3)OCO4)cn2c1N(C)Cc1ccc(OC)cc1 | active: 18.4 µM |
| COc1cc(NC(=O)c2ccc3c(c2)S(=O)(=O)N=C2CCCCCN23)cc(OC)c1 | inconclusive [inhibitor, single point] |
| CCOC(=O)c1c(NC2=NS(=O)(=O)c3ccccc32)sc2c1CCCCC2 | inconclusive [inhibitor, partial curve] |
| C#CCOC(=O)C[N+](C)(C)CC#Cc1ccccc1 | inactive |
| O=S(=O)(NCc1ccccn1)C(F)(F)F | inactive |
| N#Cc1nc(Cc2cccc3ccccc23)oc1NCc1ccc(F)cc1 | inconclusive [inhibitor, single point] |
| COc1ccncc1-c1csc(C(O)c2ccccc2)n1 (centres undefined) | inconclusive [inhibitor, partial curve, poor fit] |
| O=C(CNC(=S)N(Cc1ccccc1)Cc1ccccc1F)NCCc1ccccc1 | inactive |
| CCCc1cc(=O)n2[nH]c(-c3ccc(C)cc3)cc2n1 | inconclusive [inhibitor, single point] |
| Cc1ccccc1C(=O)NNC(=S)NC(=O)c1cccnc1 | inconclusive [inhibitor, single point] |
| COc1cccc(NC(=O)CCSc2ccc3ccccc3n2)c1 | inconclusive [inhibitor, single point] |
| O=C1COc2ccc(S(=O)(=O)N3CCCCCC3)cc2N1 | inactive |
| CCCc1cc(=O)oc2cc(C)cc(OCC(=O)NCCN3CCOCC3)c12 | inactive |

| SMILES | Potency |
| --- | --- |
| COc1ccc(N(C)S(=O)(=O)c2cccc(C(=O)NC3CCCC(C)C3C)c2)cc1 (centres undefined) | inconclusive [inhibitor, single point] |
| COc1ccc(/C=C/c2cc[n+](C)c3ccccc23)cc1OC | inconclusive [inhibitor, partial curve, poor fit] |
| CCN(CC)C(=O)c1oc2ccc(S(=O)(=O)N3CC(C)CC(C)C3)cc2c1C (centres undefined) | active: 4.11 µM |
| COC(=O)c1ccccc1NC(=O)c1cc2c(s1)-c1ccccc1OC2 | active: 16.4 µM |
| COc1cc(/C=C/C(=O)Nc2cc(S(=O)(=O)N3CCOCC3)ccc2N2CCCC2)cc(OC)c1OC | inconclusive [inhibitor, single point] |
| CSc1ccc(CNCc2ccc3c(c2)OCO3)cc1 | inconclusive [inhibitor, single point] |
| COc1ccc(-c2nnc(SCC(=O)N3CCCC3)o2)c(OC)c1 | inconclusive [inhibitor, single point] |
| COc1ccc(OC)c(S(=O)(=O)N(C)CC(=O)N2CCCCC2)c1 | inactive |
| CCOC(=O)C(NC(=O)CC)(Nc1nc2c(s1)CCCC2)C(F)(F)F (centres undefined) | inconclusive [inhibitor, partial curve] |
| O=C(CN(c1cc(C(F)(F)F)ccc1Cl)S(=O)(=O)c1ccccc1)NCCc1ccccc1 | inconclusive [inhibitor, single point] |
| Cn1c2c(c(=O)n(C)c1=O)C(c1ccc(Br)cc1)C(C#N)=C(N)N2 (centres undefined) | inconclusive [inhibitor, single point] |
| Cc1ccc(OC(=O)c2ccc([N+](=O)[O-])cc2Cl)cn1 | inactive |
| OC(c1ccccc1)(C1CCCCC1)C(CN1CCOCC1)c1ccccc1 (centres undefined) | active: 18.4 µM |
| COCC1CCN(C(=O)c2cc(COc3ccc(-n4cncn4)cc3)on2)CC1 | inconclusive [inhibitor, partial curve] |
| CCc1ccc(-c2cc(C(=O)Nc3ccc(S(=O)(=O)NC(C)=O)cc3)c3ccccc3n2)cc1 | inconclusive [inhibitor, single point] |
| O=C(CSc1nnc2n(C3CCCCC3)c(=O)c3ccccc3n12)OC1CCCCC1 | inconclusive [inhibitor, single point] |
| O=C(CN1CCCCC1)NNc1nc(-c2ccccc2)c2cc(Cl)ccc2n1 | inconclusive [inhibitor, single point] |
| COc1ccc([C@H]2N[C@]3(CCCN(Cc4ccc(F)cc4)C3=O)[C@H]3C(=O)N(Cc4ccccc4)C(=O)[C@@H]23)cc1 | inconclusive [inhibitor, single point] |
| Cc1ccc(-n2nnnc2SCC(=O)c2cc(C)n(-c3cc(C)on3)c2C)c(C)c1 | active: 23.1 µM |
| CC1=C(C(=O)N2CCCCC2)C(c2cccc(Cl)c2)n2c(nc3ccccc32)N1 (centres undefined) | active: 16.4 µM |
| COc1ccc(-c2nnc(SCC(=O)c3ccc(C)o3)o2)cc1 | inconclusive [inhibitor, single point] |
| CCN(CC(=O)Nc1c(F)cccc1F)C(=O)c1ccc(C2SCCS2)cc1 | inconclusive [inhibitor, single point] |
| COc1cc(C(=O)Nc2nccs2)ccc1OCc1c(C)noc1C | inconclusive [inhibitor, single point] |
